From PubChem BioAssay AID686978 (National Center for Advancing Translational Sciences (NCATS), 2013)
In all, about 420,000 compounds went through this assay and about 64,000 (15%) were called active. The shares of active, inactive and inconclusive entries below differ from those in the screen. The call rests on the fitted dose curve; in most records, active means well fitted inhibition curve with a large enough effect; inconclusive means small, poorly fitted or top-dose-only effect; inactive means flat fitted curve, though single readings scatter. Potencies of inconclusive entries are left out as doubtful fits.

test: qHTS for Inhibitors of human tyrosyl-DNA phosphodiesterase 1 (TDP1): qHTS in cells in absence of CPT; conditions: DT40 Tdp1-/- hTDP1 cells, no CPT, ATP luminescence, 48 h; activity change, negative = growth inhibition: at 46.2 µM (top of the series) unless noted; further: nearly all actives have a fitted effect of over 55% in size
In short: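 Chicken DT40 Tdp1-/- cells complemented with human TDP1, screened without camptothecin (DMSO vehicle only), 400 cells/well. Compounds pin-transferred, cells incubated at 37 °C for at least 48 hr. Growth read as ATP-dependent luminescence (CellTiter-Glo, 30 min at RT).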
On the % scale 0 is the no-effect control and ±100 the full control effect; potency means the concentration at half of the fitted maximal effect; tags describe the fitted curve by direction and shape.

SMILES	Potency	activity change, negative = growth inhibition
CC(=O)[C@@H]1[C@@H]2C(=O)N(Cc3ccccc3)C(=O)[C@@H]2C2c3ccccc3C=CN21 (stereo partly specified)	inconclusive [inhibitor, single point]	–
CCCCn1nnnc1C(c1ccccc1)N1CCN(c2ncccn2)CC1 (stereo unspecified)	active: 20.6 µM	–
CCCCC(CC)CNC(=O)CCS(=O)(=O)c1cccc2nsnc12 (stereo unspecified)	–	inconclusive: -32% [inhibitor]
COc1ccccc1CNC(=O)[C@H](C)NC(=O)C1CCN(C(=O)[C@@H](N)CCSC)CC1	inactive	–
Cc1ccccc1-c1nn2c(=O)cc(CN3CCN(C(=O)c4ccccc4Br)CC3)nc2s1	inconclusive [inhibitor, full curve]	–
CCc1ccccc1NC(=O)C(CCSC)NS(=O)(=O)c1ccc2c(c1)oc(=O)n2C (stereo unspecified)	inactive	–
Cc1ccc(-c2nc(NCCN(C)C)c3ccccc3n2)cc1	inconclusive [inhibitor, single point]	–
O=C(CCC1CCCCC1)Nc1cc(Cl)ccc1N1CCOCC1	inconclusive [inhibitor, single point]	–
CCSc1nnc(NC(=O)[C@@H](NC(=O)c2ccccc2)C(C)C)s1	inactive	–
O=C(CCN1C(=O)S/C(=C/c2ccc(Cl)cc2)C1=O)N1CCOCC1	active: 16.4 µM	–
CCCCCC(=O)N1C[C@@H](n2cc(COC(=O)c3ccccc3)nn2)[C@H](O)C[C@@H]1c1ccccc1	inconclusive [inhibitor, single point]	–
Cc1ccccc1CN(C)C(=O)c1ccc2ccccc2n1	inconclusive [inhibitor, single point]	–
CS(=O)(=O)N(CC(=O)O)c1cc(C(F)(F)F)ccc1Cl	inactive	–
Cc1cc(C(C)(C)C)cc(C)c1CCNC(=O)c1ccc[n+]([O-])c1	inconclusive [inhibitor, single point]	–
COc1ccccc1-c1cnc(C(O)c2ccc(F)c(F)c2)[nH]1 (stereo unspecified)	inconclusive [inhibitor, partial curve]	–
CC(=O)Nc1nnc(CCS(=O)(=O)c2ccc(C)cc2)s1	inconclusive [inhibitor, single point]	–
O=[N+]([O-])c1cccc(S(=O)(=O)NCCCn2ccnc2)c1	inactive	–
CC(CNc1nc2ccccc2n2cnnc12)c1ccccc1 (stereo unspecified)	inconclusive [inhibitor, single point]	–
Cc1ccc(S(N)(=O)=O)cc1NC(=O)/C=C/c1ccc2c(c1)OCO2	inactive	–
CC1CCN(S(=O)(=O)c2ccc3nc(N4CCN(c5ccccc5)CC4)ccc3c2)CC1	inactive	–
O=C1NC[C@H](CCCCN2C[C@H](Cc3ccccc3)N(CCC3CCCCC3)C(=O)C2=O)N(CCc2ccc(O)cc2)C1=O	inactive	–
COc1ccc(NC(=O)CCSc2ccc(C)cc2)cc1	inconclusive [inhibitor, single point]	–
CCOC(=O)N1CCC(N2Cc3cccc(C(=O)Nc4cc(F)ccc4F)c3C2=O)CC1	inconclusive [inhibitor, full curve, poor fit]	–
O=C(/C(=C/O)N=Nc1ccccc1Cl)c1ccccc1	inconclusive [inhibitor, single point]	–

SMILES	Potency	activity change, negative = growth inhibition
Oc1c(C(c2ccc(Cl)cc2)N2CCOCC2)sc2nc(-c3ccco3)nn12 (stereo unspecified)	inactive	–
CCOC(=O)CNC(=O)CCc1nnc2ccc(N3CCC(C)CC3)nn12	inconclusive [inhibitor, single point]	–
COc1ccccc1OCC(=O)Nc1cc(-c2ccc(C)cc2)no1	inactive	–
Cc1ccc(C(=O)NCC(=O)OCC(=O)NC2CCCCCCC2)cc1	inactive	–
O=C(c1ccco1)N1CCN(C(=O)c2cnn(-c3ccc(Cl)cc3)c2C2CCNCC2)CC1	inactive	–
Fc1cccc(CSc2nc(NCCc3ccccc3)c3ccccc3n2)c1	active: 23.1 µM	–
COc1cc(NC(=O)COc2ccc(Cl)cc2)ccc1NC(=O)C(C)C	inconclusive [inhibitor, single point]	–
Cc1ccc(C(=O)N/N=C/c2ccc(OC(=O)c3ccccc3Cl)cc2)cn1	inconclusive [inhibitor, single point]	–
COc1ccc(S(=O)(=O)Cc2ccc(C(=O)N3CCN(c4ccccc4F)CC3)o2)cc1	inconclusive [inhibitor, single point]	–
COCCC(=O)N1CCC(Oc2ccc(C(=O)N(C)CCCC3CCCC3)cc2)CC1	inconclusive [inhibitor, partial curve]	–
CC1CN(C(=O)c2cc(S(=O)(=O)N(C)c3ccc(F)cc3)ccc2Cl)CC(C)O1 (stereo unspecified)	active: 1.03 µM	–
Nc1nonc1C(=O)NCCNCc1cc(Br)ccc1OCc1ccccc1F	active: 20.6 µM	–
CCOC(=O)N1CCN(C(=O)c2cn(CC)c3ccc(S(=O)(=O)N4CCOCC4)cc3c2=O)CC1	inactive	–
O=C(NCc1ccccc1)c1ccc(-c2ccc(F)c(F)c2)c2ccoc12	inconclusive [inhibitor, single point]	–
O=C1N=C2SCCN2/C1=C\c1c(Cl)cccc1Cl	inactive	–
Cc1ccc(C2=NN(C(=O)COc3ncnc4ccccc34)C(c3ccco3)C2)cc1 (stereo unspecified)	inconclusive [inhibitor, single point]	–
CCOC(=O)N1CCN(C2=C(NS(=O)(=O)c3ccccc3)C(=O)c3ccccc3C2=O)CC1	inconclusive [inhibitor, single point]	–
CC(NC(=O)C1CCCN1S(=O)(=O)c1ccc2c(c1)n(C)c(=O)c(=O)n2C)c1ccccc1 (stereo unspecified)	–	inconclusive: -32.5% [inhibitor]
CC(=O)c1cc(-c2ccc(F)cc2)n(CC(=O)NCc2ccc(C)cc2)c1C	active: 8.2 µM	–
CCCC[C@@H]1CNCCN1CCc1cccc(F)c1	inconclusive [inhibitor, single point]	–
COc1ccc(CNC(=O)CCC(=O)Nc2nnc(CC(C)C)s2)cc1	inactive	–
COc1ccc2c(C)c(C(=O)N3CCN(Cc4ccccc4)CC3)oc2c1	inconclusive [inhibitor, partial curve, poor fit]	–
COc1ccc(S(=O)(=O)N2CCCC2C(=O)NCC(=O)Nc2cccc(Cl)c2C)cc1 (stereo unspecified)	inconclusive [inhibitor, single point]	–
CCn1c(COc2ccccc2C)nnc1SCC(=O)N1CCN(c2ccccc2)CC1	active: 23.1 µM	–

SMILES	Potency	activity change, negative = growth inhibition
COc1ccc(CC(=S)NCCc2ccccc2)cc1	inconclusive [inhibitor, single point]	–
COc1ncc(-c2c(-c3ccccc3OC)sc3ccccc23)cn1	inconclusive [inhibitor, single point]	–
C[C@H](NC[C@H](O)CP(=O)(O)Cc1ccccc1)c1ccc(Cl)c(Cl)c1	inactive	–
NNc1nc(N)c2c(n1)-c1ccccc1CC21CCCC1	active: 16.4 µM	–
O=C(OCc1ccc(F)cc1Cl)c1ccccn1	inconclusive [inhibitor, full curve]	–
Cc1cc(C)c(OCC(=O)Nc2cccc(-c3nc4ncccc4o3)c2)c(Br)c1	inconclusive [inhibitor, single point]	–
Cn1c2c(c(=O)n(C)c1=O)C(NC(=O)c1ccco1)(C(F)(F)F)C(=O)N2 (stereo unspecified)	inactive	–
COc1ccc2cc(C(=O)NCc3ccccc3)c(=Nc3ccc(C(=O)O)cc3)oc2c1	active: 13 µM	–
CN(C)CCNC(=O)c1cccc(-c2cnc3c(NC=O)cc(/C=C/c4ccccc4)cn23)c1	active: 5.17 µM	–
CN(CC(=O)Nc1ccc(S(=O)(=O)N2CCCC2)cc1)CC(=O)Nc1ccc(F)c(F)c1F	inconclusive [inhibitor, single point]	–
COc1cccc(CN(C)C(=O)/C=C/c2ccc(S(=O)(=O)N3CCCCCC3)cc2)c1	inconclusive [inhibitor, single point]	–
Cc1ccc(NC(=O)CSc2n[nH]c(-c3ccco3)n2)c(C)c1	inactive	–
Cc1cc(C2=NNC(=NCCc3ccccc3)SC2)c(C)n1CC1CCCO1 (stereo unspecified)	inconclusive [inhibitor, single point]	–
CN(C)CCNc1ncnc2c1ncn2[C@H]1CN(Cc2ccco2)C[C@@H](CO)O1	inactive	–
CCCc1nc2sc3c(c2c(=O)n1N)CCC3	–	inconclusive: -31.8% [inhibitor]
Cc1cc(C)c(/C=N/NC(=O)c2nnn(-c3nonc3N)c2COc2ccc(F)cc2)c(C)c1	inconclusive [inhibitor, single point]	–
COc1ccccc1C(=O)NC(=S)Nc1ccc(Cc2ccncc2)cc1	active: 18.4 µM	–
CC1(C(=O)Nc2ccc3c(c2)OCCO3)CCN1Cc1ccc(-c2ccccn2)cc1 (stereo unspecified)	inconclusive [inhibitor, single point]	–
Cc1ccccc1Nc1nc(N)nc(CSc2ccc(F)cc2)n1	inconclusive [inhibitor, single point]	–
CC(C)C(NC(=O)c1ccccc1)C(=O)NCCc1ccccc1 (stereo unspecified)	inactive	–
CCOC(=O)c1cccc(NC(=O)NCc2ccc3c(c2)CCN3C(=O)CC)c1	inconclusive [inhibitor, single point]	–
Cn1c(C(=O)N2CCCC(C(=O)c3ccc(C(F)(F)F)cc3)C2)cc(=O)n(C)c1=O (stereo unspecified)	inconclusive [inhibitor, partial curve]	–
C=CC[N+]1(CC#Cc2ccccc2)CCCC1	inconclusive [inhibitor, single point]	–
